# Measured values: article PMC4336329 (PLoS ONE, 2015)
# Among all 310,000 compounds or so, about 14,000 (4.5%) showed an effect of 50% or more. The effect is printed as a negative number. This is one part of the list.
# Target: human ether-à-go-go-related gene (hERG) potassium channel (human, UniProt Q12809)
# Test: primary screen, population patch clamp on CHO cells stably expressing hERG
# 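Also: peak tail current of the secondary pulse compared with the same well before compound.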
# Sequence of human ether-à-go-go-related gene (hERG) potassium channel (Q12809 whole entry, looked up): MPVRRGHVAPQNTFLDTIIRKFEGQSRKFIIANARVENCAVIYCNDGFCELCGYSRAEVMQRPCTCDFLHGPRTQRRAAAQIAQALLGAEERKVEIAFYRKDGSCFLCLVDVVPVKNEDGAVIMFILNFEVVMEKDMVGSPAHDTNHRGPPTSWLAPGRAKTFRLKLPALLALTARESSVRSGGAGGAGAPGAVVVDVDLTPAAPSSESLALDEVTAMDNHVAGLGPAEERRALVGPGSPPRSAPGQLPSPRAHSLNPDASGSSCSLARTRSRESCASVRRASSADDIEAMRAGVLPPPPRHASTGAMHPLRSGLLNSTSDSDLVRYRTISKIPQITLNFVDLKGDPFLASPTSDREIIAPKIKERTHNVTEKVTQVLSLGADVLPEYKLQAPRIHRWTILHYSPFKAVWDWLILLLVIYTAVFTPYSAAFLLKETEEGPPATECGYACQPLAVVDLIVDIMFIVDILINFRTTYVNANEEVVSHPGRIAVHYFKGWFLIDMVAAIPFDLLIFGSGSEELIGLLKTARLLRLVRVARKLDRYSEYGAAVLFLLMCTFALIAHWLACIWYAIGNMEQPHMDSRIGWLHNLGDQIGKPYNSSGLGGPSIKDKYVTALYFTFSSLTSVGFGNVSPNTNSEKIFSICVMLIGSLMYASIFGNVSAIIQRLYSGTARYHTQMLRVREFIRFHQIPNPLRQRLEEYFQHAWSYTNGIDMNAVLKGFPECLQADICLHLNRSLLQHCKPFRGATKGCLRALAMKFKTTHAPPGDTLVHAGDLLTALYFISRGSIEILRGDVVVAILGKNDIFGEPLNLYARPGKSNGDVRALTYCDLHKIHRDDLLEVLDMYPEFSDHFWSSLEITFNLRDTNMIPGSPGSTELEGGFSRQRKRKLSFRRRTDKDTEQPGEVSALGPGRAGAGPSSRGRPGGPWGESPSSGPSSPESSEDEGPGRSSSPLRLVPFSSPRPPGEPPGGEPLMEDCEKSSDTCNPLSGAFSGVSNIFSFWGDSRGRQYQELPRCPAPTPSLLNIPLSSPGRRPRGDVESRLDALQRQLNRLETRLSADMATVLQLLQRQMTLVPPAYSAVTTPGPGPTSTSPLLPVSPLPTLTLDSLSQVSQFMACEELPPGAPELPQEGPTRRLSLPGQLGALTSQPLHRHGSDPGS
row,SMILES,"hERG current change (%, negative = inhibition) at 10uM [%]"
1,CC(=O)CC(=O)Nc1ncc(C(F)(F)F)cc1Cl,15.9
2,CCN1C(=O)CC(N2CCN(c3ccc(OC)cc3)CC2)C1=O (centres unmarked),-9.88
3,CCCC(=O)N1c2ccccc2NC2=C(C(=O)CCC2)C1c1ccc(F)cc1 (centres unmarked),10.9
4,Cc1cc(=O)oc2cc(Oc3ccc([N+](=O)[O-])cc3[N+](=O)[O-])ccc12,-64.4
5,O=C(C1CC(=O)N(c2ccc(F)cc2)C1)N1CCCCCC1 (centres unmarked),-6.27
6,O=C(NCc1nc2ccccc2[nH]1)C1=C[C@H](c2coc3ccccc3c2=O)C[C@H](OCc2ccc(CO)cc2)O1,-21.5
7,O=C(Cn1nnc(-c2ccccc2)n1)OC1CCOC1=O (centres unmarked),10.7
8,COc1ccc(CCN(C)C(=O)C2CCN(Cc3ccc(C)cc3)CC2)cc1OC.O=C(O)C(=O)O,-60.8
9,NNC(=O)CNS(=O)(=O)c1ccc([N+](=O)[O-])cc1,17.4
10,O=c1[nH]c(SCc2ccccc2)nc2[nH]ncc12,1.64
11,CC(C)C(=O)Nc1ccc(NC(=O)c2cccc(F)c2)cn1,-2.18
12,Cc1cc(C)cc(C(=O)NCC(=O)N2CCN(C(c3ccccc3)c3ccccc3)CC2)c1,8.55
13,CC(C)OCCCNC(=O)CNC(=O)c1ccc(Cl)c(Cl)c1,18.4
14,CC(=C/c1ccco1)/C=N/NC(=O)Cc1cccn1C,-6.63
15,CCn1nc(C(=O)NC2=NCCS2)c2ccccc2c1=O,13.9
16,CC(C)C[C@H](NC(=O)N1CC(=O)Nc2ccccc21)C(=O)N[C@H](C(=O)O)c1ccccc1,13.6
17,COc1c(Cl)cc(C(=O)O)cc1Cl,0.549
18,Cn1nc(C(=O)Nc2cccc(C(F)(F)F)c2)ccc1=O,-6.26
19,COc1ccc(/C=N/NC(=O)c2ccco2)cc1OCc1ccccc1,4.5
20,O=C(/C=C/c1ccccc1)Nc1ccc(C(=O)N2CCCCC2)cc1,-4.21
21,Cc1cccc(N2C(=O)Cc3ccccc3C2=O)c1,-1.33
22,c1cnc2ccc(-c3ccc4ncccc4c3)cc2c1,-5.61

row,SMILES,"hERG current change (%, negative = inhibition) at 10uM [%]"
1,CC(=O)Nc1ccc(S(=O)(=O)N2CCN(CCN3CCOCC3)CC2)cc1Cl,10.5
2,O=C(COC(=O)C1(c2ccccc2F)CCCC1)NC1CCS(=O)(=O)C1 (centres unmarked),-11.2
3,COc1cccc(CNS(=O)(=O)c2ccc3c(c2)C(C)(C)C(=O)N3C)c1,-8.36
4,CC(=O)Nc1nc2c(s1)C(=O)NCC(C)(C)C2,17.3
5,C[C@H]1C=C(C(=O)NC2CC2)O[C@@H](OCc2ccc(CO)cc2)C1,-0.916
6,COc1ccc(-c2nn(-c3ccccc3C)cc2CNCc2cccnc2)cc1F,-38.3
7,CN(Cc1ccccc1)S(=O)(=O)c1ccc2[nH]cc(C(=O)NCC3CCCO3)c(=O)c2c1 (centres unmarked),-14.6
8,CC(C)(C)c1ccc(C(=O)c2c[nH]c(C(=O)NCc3cccnc3)c2)cc1,-2
9,CCC(=O)Nc1nc2nc(-c3ccccc3)cc(-c3ccccc3)n2n1,2.99
10,O=C(Nc1cccnc1)c1ccc(N2CCOCC2)c([N+](=O)[O-])c1,21.7
11,Cc1ccc(O)c(NC(=S)NC(=O)COc2ccc(Br)cc2)c1,17.8
12,Cc1onc(-c2c(F)cccc2Cl)c1C(=O)Nc1nnc(-c2ccccc2)s1,5.26
13,CCC(C)(C)C1CCC(=NNC(=S)Nc2cccnc2)CC1 (centres unmarked),7.29
14,COc1ccc(/C=C2/N=C(SCC(=O)Nc3cc(C)on3)N(c3ccccc3)C2=O)cc1,21.5
15,CCOC(=O)/C(=N\Nc1cc(C(F)(F)F)ccc1Cl)N(CC)CC,-1.11
16,COc1ccc(COCC(O)CN2CCN(S(=O)(=O)c3ccc(C(C)C)cc3)CC2)cc1 (centres unmarked),-12.3
17,O=C(Nc1cccc(C(F)(F)F)c1)c1ccc2nc(N3C(=O)CCC3=O)sc2c1,-1.79
18,Cc1cc(C(=O)OCC(=O)Nc2ccc(F)cc2[N+](=O)[O-])c2ccccc2n1,5.28
19,COC(=O)c1cc(=O)n(-c2ccc(C(F)(F)F)cc2)[nH]1,13.9
20,O=[N+]([O-])c1cc(S(=O)(=O)N2CCCC2)ccc1O,-0.443
21,Cc1nnc(NCCc2ccccc2)n(N)c1=O,7.99
22,N/C(=N\OC(=O)CCCc1ccccc1)c1cccnc1,-25.2

row,SMILES,"hERG current change (%, negative = inhibition) at 10uM [%]"
1,Cc1c(NC(=O)CN2C(=O)c3ccccc3C2=O)c(=O)n(-c2ccccc2)n1C,6.03
2,COc1ccccc1OC(=O)Nc1ccc(Cl)cc1,12.1
3,Fc1ccc(C(c2nnnn2CCc2ccccc2)N2CCCc3ccccc32)cc1 (centres unmarked),9.57
4,COc1ccc(/C=N/NC(=O)C(=O)N2CCCCCC2)cc1[N+](=O)[O-],-10.4
5,CC(C)CC(=O)N1CCC(O)(CS(=O)(=O)Cc2ccccc2)CC1,-1.93
6,COc1ccc(CCNC(=O)C2CCCN2S(=O)(=O)c2cccc3nsnc23)cc1OC (centres unmarked),4.29
7,O=C(N/C(=C\c1ccc([N+](=O)[O-])cc1)C(=O)N1CCOCC1)c1cccc(Br)c1,-74.2
8,CC(C)CN(C(=O)COC(=O)Cc1ccc(Cl)cc1)c1c(N)n(Cc2ccccc2)c(=O)[nH]c1=O,5.02
9,COc1ccc(CC(C(=O)Nc2cccc(F)c2)c2nn[nH]n2)c(OC)c1 (centres unmarked),6.23
10,Cc1c(NC(=O)/C(C#N)=C/c2cccs2)c(=O)n(-c2ccccc2)n1C,1.26
11,Cc1nc2cc(S(=O)(=O)N3CCC(C(=O)O)CC3)ccc2n1C1CCCC1,15.7
12,CCOC(=O)c1c(-c2ccc(OC)cc2)oc2ccc(O)cc12,13.1
13,Cc1nn(Cc2ccc(F)cc2Cl)c(C)c1[N+](=O)[O-],-1.01
14,CCOc1ccc(C2CC(=O)NC(SCC(=O)OC)=C2C#N)cc1 (centres unmarked),-5.84
15,OCC(O)CNC(=S)NC1CCCCC1 (centres unmarked),16.3
16,C=CCn1c(O)c(/C=C2\C=Nc3ccccc32)c(=O)[nH]c1=O,15.4
17,O=c1c2ccccc2nnn1CSc1nnnn1-c1ccc(O)cc1,-13.1
18,CC1SCC(=O)N(CC(=O)NC2CCCCC2)C1=O (centres unmarked),32
19,CC1CCN(S(=O)(=O)c2ccc3c(ccn3CCC(=O)NC(C)C)c2)CC1,-12.8
20,O=C(NCc1cccnc1)c1ccc(Cl)cc1[N+](=O)[O-],5.82
21,CCOC(=O)c1c(N)nn(C(=O)c2ccccc2)c1-c1ccccc1,14.3
22,O=c1[nH]c2cc3c(cc2cc1C(c1nnnn1Cc1ccccc1)N1CCCc2ccccc21)OCO3 (centres unmarked),17

row,SMILES,"hERG current change (%, negative = inhibition) at 10uM [%]"
1,CCCn1c(=O)c2c(nc3n2CCCN3CCc2ccccc2)n(C)c1=O,-65.4
2,COCc1cc(=O)n2[nH]c(-c3ccsc3-n3c(C)ccc3C)cc2n1,-14.2
3,Cc1ccnc(NS(=O)(=O)c2ccc(NC(=O)c3ccc(Cl)cc3[N+](=O)[O-])cc2)n1,5.91
4,O=C(O)c1cc(S(=O)(=O)N2CCN(C(=O)c3ccco3)CC2)c(Cl)cc1Cl,15
5,O=C(N/N=C/c1coc2ccccc2c1=O)c1cn(-c2ccccc2)nc1-c1ccc(F)cc1,16.1
6,CCn1cnc2cc([N+](=O)[O-])ccc21,1.19
7,CC(Oc1cc2oc(=O)c3c(c2cc1Cl)CCC3)C(=O)NCc1ccncc1 (centres unmarked),-5.19
8,CSc1c(CC(=O)Nc2ccccc2)n(C)c2ccccc12,22.2
9,C=C(C)C(=O)Nc1cccc(C2=NOC3(C2)C[C@H](C(N)=O)N(C(=O)c2ccccc2)C3)c1 (some centres unmarked),5.7
10,Cc1ccc(C(=O)NCC(=O)OCc2cccc(Br)c2)cc1,-37.9
11,COc1ccc(-n2cnc3cc(NCc4ccco4)ccc32)cc1,-67.3
12,Cc1ccc(N(CC(=O)NCc2ccco2)C(=O)CCC(=O)Nc2nccs2)c(C)c1,-22.5
13,CC(C)CNC(=O)N[C@@H](CC(C)C)C(=O)O,9.58
14,CCOc1cc(C(=O)N2CCC(CC3CC(c4cccc(Br)c4)=NO3)(C(=O)NCC3CCCCC3)CC2)cc(OCC)c1OCC (centres unmarked),4.14
15,CC(=O)Nc1ccc(OCCOc2ccc(/C=C3\C(=N)N4N=C(C)SC4=NC3=O)cc2)cc1,19
16,O=C(O)CCc1nn2c3ccccc3nc2n(CCN2CCCCC2)c1=O,12.3
17,NC(=O)C1(c2ccccc2)CCCN1C(=O)c1ccc(Br)cc1 (centres unmarked),-9.26
18,Cc1ccc(S(=O)(=O)N2CC3(C)CN(S(=O)(=O)c4ccc(C)cc4)CC(C)(C2)C3)cc1,3.41
19,COc1cccc(NC(=O)C(Cc2ccccc2)n2cccc2)c1 (centres unmarked),-17
20,CCCn1nnnc1NCc1cccc(OC)c1,18.6
